The values that follow come from the supplement of paper PMC9446081.

About 220 (0.56%) of roughly 39,000 compounds showed activity. This is one part of the list.
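Further: static incubation at 37 °C against the wild-type strain, values averaged over two biological replicates.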

The test system of the test is Escherichia coli K-12 BW25113. Kind of test: relative growth (OD600 normalised to plate interquartile mean) (fraction); higher = less growth inhibition, active = 0.2 or less. The conditions noted are these: 50 µM; LB; incubation time: overnight (16-24 h).
Regarding `NCc1ccccc1-c1ccco1`, the relative growth is inactive: 0.983.

`C[C@@H]1CN([C@H](C)CO)C(=O)Cc2cc(NC(=O)CCC(F)(F)F)ccc2O[C@H]1CN(C)S(=O)(=O)c1ccccc1`: the relative growth is inactive: 1.01. Next, `COc1cccc(-c2ccc3c(c2)O[C@H](CN(C)Cc2cncnc2)[C@H](C)CN([C@@H](C)CO)S3(=O)=O)c1`: inactive: 0.977; `Nc1ccn([C@H]2C[C@H](O)[C@@H](CO)O2)c(=O)n1`: inactive: 0.996; `C[C@@H]1CN([C@@H](C)CO)S(=O)(=O)c2ccc(C#Cc3ccc(F)cc3)cc2O[C@@H]1CN(C)C(=O)CN(C)C`: inactive: 1.02. The result for `Cn1nnnc1S[C@H]1CCNC1` reads inactive: 0.996. Turning to `C[C@H](CO)N1C[C@H](C)[C@H](CN(C)S(C)(=O)=O)Oc2ccc(NS(=O)(=O)c3cccs3)cc2C1=O`, the relative growth is inactive: 0.996. As for `CC(C)NC(=O)Nc1ccc2c(c1)C(=O)N([C@@H](C)CO)C[C@H](C)[C@@H](CN(C)S(=O)(=O)c1cn(C)cn1)OCCCC[C@H](C)O2`, the relative growth was inactive: 0.997. Next, `NCCCCCC(O)(P(=O)(O)O)P(=O)(O)O`: inactive: 0.974; `CCS(=O)(=O)Nc1ccc2c(c1)C(=O)N(C)[C@H]1CC[C@@H](CC(=O)NCc3ccccc3F)O[C@@H]1CO2`: inactive: 0.966. `COc1ccc2c3c(n(c2c1)C)[C@@H](CO)N(CC1CCCC1)C[C@]13CCN(CC1)C(=O)Nc1ccccc1`: the relative growth was inactive: 0.984.

Consider `C=CCOC(=O)[C@H]1[C@@H]2C(=O)O[C@@H](c3ccccc3)[C@@H](c3ccccc3)N2[C@@H](c2ccc(OCCOC(=O)[C@@H]3C[C@@H]4C(=O)N[C@@H](CC(C)C)C(=O)N4[C@@H]3c3ccc(O)cc3)cc2)[C@]12C(=O)Nc1ccc(I)cc12`, for which the relative growth was inactive: 1.05. As to `COc1ccc(NC(=O)N(C)C[C@@H]2OCCCC[C@@H](C)Oc3ccc(NC(=O)NC4CCCCC4)cc3C(=O)N([C@H](C)CO)C[C@H]2C)cc1`, the relative growth is inactive: 0.945. Take `CO[C@@H]1CN(C)C(=O)c2ccc(NC(=O)CC(F)(F)F)cc2OC[C@H](C)N(C(=O)C2CCOCC2)C[C@H]1C`: the relative growth was inactive: 1.04. Take `O=C(C[C@H]1C=C[C@@H](NS(=O)(=O)c2ccc(F)cc2)[C@@H](CO)O1)NCc1ccc(Cl)c(Cl)c1`: the relative growth was inactive: 0.958. In the case of `CCS(=O)(=O)N1C[C@]2(CN(Cc3cccc(c3)Cl)[C@H](CO)c3c2c2ccc(cc2n3C)OC)C1`, the relative growth is inactive: 1.07. Next, `C[C@@H]1CN([C@H](C)CO)C(=O)c2cc(NC(=O)Cn3cnnn3)ccc2O[C@H]1CN(C)Cc1ccc(C(=O)O)cc1`: inactive: 0.991; `Cc1noc(C)c1NC(=O)Nc1ccc2c(c1)C(=O)N([C@@H](C)CO)C[C@H](C)[C@@H](CN(C)C(=O)Nc1ccc(C(F)(F)F)cc1)OCCCC[C@@H](C)O2`: inactive: 1.02. The result for `COc1ccc(NC(=O)Nc2ccc3c(c2)C(=O)N([C@H](C)CO)C[C@H](C)[C@H](CN(C)S(=O)(=O)c2ccc(F)cc2)OCCCC[C@@H](C)O3)cc1` reads inactive: 1.01; that for `C[C@@H]1CN([C@@H](C)CO)C(=O)Cc2cc(NS(=O)(=O)c3cn(C)cn3)ccc2O[C@@H]1CN(C)S(=O)(=O)c1cccs1`, inactive: 0.895. `CC(C)NC(=O)N(C)C[C@H]1Oc2ccc(NC(=O)c3ccncc3)cc2CC(=O)N([C@@H](C)CO)C[C@@H]1C`: the relative growth was inactive: 0.992.

As to `C[C@@H]1CN([C@@H](C)CO)C(=O)c2cc(NC(=O)C3CCCCC3)ccc2O[C@@H](C)CCCCO[C@H]1CN(C)C(=O)C1CCCCC1`, the relative growth was inactive: 1.02. Consider `O=C(C[C@@H]1CC[C@@H]2[C@H](COC[C@H](O)CN2C(=O)c2ccc3c(c2)OCO3)O1)NC1Cc2ccccc2C1`, for which the relative growth is inactive: 1.03.

In the case of `O=c1nc[nH]c2nc[nH]c12`, the relative growth was inactive: 0.991. The result for `CN1CCNC1=S` reads inactive: 1.01. The result for `C[C@@H]1CN([C@H](C)CO)C(=O)c2cc(N(C)C)ccc2O[C@@H](C)CCCCO[C@H]1CN(C)S(=O)(=O)c1cn(C)cn1` reads inactive: 0.992; that for `C[C@H]1CN([C@@H](C)CO)C(=O)Cc2cc(NC(=O)Cn3cnnn3)ccc2O[C@H]1CN(C)Cc1ccc(Cl)c(Cl)c1`, inactive: 1.02; that for `C[C@@H]1CCCCO[C@H](CN(C)Cc2ccc(C(F)(F)F)cc2)[C@H](C)CN([C@@H](C)CO)C(=O)c2cc(NC(=O)Nc3ccc(C(F)(F)F)cc3)ccc2O1`, inactive: 1.02. Take `O=C(C[C@H]1CC[C@@H](NC(=O)c2cccnc2)[C@@H](CO)O1)NCCN1CCCCC1`: the relative growth is inactive: 0.963. The result for `COc1ccccc1NC(=O)N(C)C[C@@H]1Oc2ncc(C#CCN(C)C)cc2C(=O)N([C@H](C)CO)C[C@H]1C` reads inactive: 0.998. The result for `CC(C)CN(C(=O)COC(=O)c1c2c(nc3ccccc13)CCC2)c1c(N)n(Cc2ccccc2)c(=O)[nH]c1=O` reads inactive: 1.02; that for `CCc1nc2ccc(C(=O)Nc3cccc(OCC(=O)N(C)C)c3)cn2c1N(C)Cc1cc2ccccc2s1`, inactive: 1.03; that for `C=C(C)[C@@H]1CC[C@]2(C(=O)O)CC[C@]3(C)[C@H](CC[C@@H]4[C@@]5(C)CC[C@H](OC(=O)CC(C)(C)C(=O)O)C(C)(C)[C@@H]5CC[C@]43C)[C@@H]12`, inactive: 0.85. `C[C@@H]1CCCCO[C@@H](CN(C)C(=O)NC2CCCCC2)[C@@H](C)CN([C@H](C)CO)C(=O)c2cc(NC(=O)Nc3ccccc3)ccc2O1`: the relative growth is inactive: 1.01.

On to `COc1ccc(CN(C)C[C@@H]2OCCCC[C@@H](C)Oc3ccc(NC(=O)NC4CCCCC4)cc3C(=O)N([C@@H](C)CO)C[C@H]2C)cc1`, for which the relative growth was inactive: 0.991.

For the molecule `O=C1O[C@@H](c2ccccc2)[C@@H](c2ccccc2)N2[C@@H](c3ccccc3OCCO)[C@]3(C(=O)Nc4ccc(C#CC5=CCCCC5)cc43)[C@@H](C(=O)O)[C@H]12`, the relative growth was inactive: 0.92. For the molecule `C[C@@H]1CN([C@H](C)CO)C(=O)c2c(c3ccccc3n2C)-c2ccccc2CO[C@H]1CN(C)C(=O)CCC(F)(F)F`, the relative growth was inactive: 0.982.

As for `C[C@H](CO)N1C[C@H](C)[C@H](CN(C)Cc2ccc(Oc3ccccc3)cc2)OCc2ccccc2-c2c(n(C)c3ccccc23)C1=O`, the relative growth was inactive: 1.
